Results taken from the supplement of paper PMC11417369.
Some of the results follow.

System: PfSIP2 AP2 domain 1 (GST-tagged)
Test: gcPBM binding intensity (ln(normalized median fluorescence intensity)); higher = stronger DNA binding
Method in brief: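 Binding intensity values are the highest Masliner-normalised natural-log median intensity among replicate spots of either probe orientation. The binding step lasted 1 h in 1× PBS with 1% milk, 0.2 mg/ml BSA, 0.5% salmon testes DNA and 0.03% Triton X-100, using GST-tagged P. falciparum DNA-binding domains expressed in E. coli on an Agilent 4 × 180k array of primer-extended double-stranded 36-bp intergenic genomic probes plus negative controls. Alexa488 anti-GST antibody and a 488 nm scan detected bound protein.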

Sequence	gcPBM binding intensity (ln)
CATAGACACGAACATACACACGGACATACATACGGA [CACACA_site8101]	6.98
GTAACAAATTAATAGTGTACATATTTTAAAAAAATA [XGTACX_site7150]	7.18
AATGCAAAGGTGAAAGAACACACAAAAAAAAAAAAA [CACACA_site9333]	6.87
GTGTTAAATTTTTGAACATGCAAGTTTTATTATTGA [TGCATGCA_site478]	6.99
ATATTATAAATATAATGTACGTTTTAATTTCATGTT [XGTACX_site3557]	6.86
ATATATAATTATTGAAGTACTTGTTCATAAAATGGT [XGTACX_site5656]	7.16
TATATGAGCATAAAGACACACAAATAAAACCAAACA [CACACA_site3856]	7.08
AAAATAAAATGAAAACGTACATGATAAATTTTAATT [XGTACX_site4199]	6.83
AGAACAATTCTGTGGTGTACCAAAAAAAATTTAATT [XGTACX_site8082]	6.93
TAAATGAATTTTACTATACACACGTATACATTTGTA [CACACA_site1210]	6.72
AAAATAAATAAATATACACACCATATTTATATTTTT [CACACA_site7361]	6.9
ATATTTAAATTTTGCACACGCATATGAAATTAGGAC [CACACA_site1035]	7.54
TACTACACACATTCATGTACTTGATAAATTAATGAT [XGTACX_site6444]	7.03
ATAACTAATATGAAATGTACCCATCAAAGTGTGCAT [XGTACX_site4463]	7.32
TAATTTGTTATTTATTGTACAAACATTATATGTTAA [XGTACX_site6637]	7.1
AAAATTAAAATACGTACACACCTTATCTTTTTGGCT [CACACA_site4311]	7.08
CATACATACATACATACACACATATATAAATATATG [CACACA_site7028]	7.97
TAAGTGATCGCATAATGTACATATTATTTATTATTT [XGTACX_site3061]	6.85
TACATTTAAAAAAAAACACACATATTTATATTTATA [CACACA_site7236]	6.79
GGAAGGATATAACATACACACACACCCATATATATA [CACACA_site9376]	7.7
TTATGTATTTATTTATGTACTAATTGTATGCATATT [XGTACX_site6436]	6.93
CATATACATAGACACACACACACATAAATAAATATA [CACACA_site6749]	7.27
TTTCCTGGTCAAGGGGTTACGGTTACGTCCTCTTGC [CACACA_negctrl_site856]	6.5

Sequence	gcPBM binding intensity (ln)
ATACTTTATAAATACTAAAGTGTATTTTGTAATATA [CACACA_negctrl_site1710]	6.76
ATTTGTATATATAATTGTACGCATATTCTATACGAT [XGTACX_site7367]	6.94
AAAAATATGAAAGTAACTAAGTTGTTATTGATAACA [CACACA_negctrl_site1608]	6.6
ACGTTAGGCTTATTTGCACACTTGTATTATAATTTT [CACACA_site1317]	7.08
ATATTATCACAAGGTGGTACACAAAAAAAAAAAAAA [XGTACX_site8224]	7.64
ATAAATATGGAGCACACACACATAAACATACAGATA [CACACA_site4395]	7.19
TACTTTCACATTAAATGTACGTATAGTTTCATTCTT [XGTACX_site8528]	7.23
ATATTAAAAATATATACACACATATATATAAATATA [CACACA_site2257]	6.9
TATATTTAAGTACATAAATAAGCCCATTTACATACA [CACACA_negctrl_site1224]	7.17
TTTGGAGAATTCATAGTGCATTTATTTATTGTTAAT	7.97
TTCTAAAATTATATAGTGCAATTATTTTATTTTTCT	8.27
AAAAAAATAAAACACATACATATATGTATATATATA [GTGCAC_negctrl_site390]	8.29
TAAATATATATATAAGTGCATTATATATATATATAA	8.97
ATTAATAATTATTATGGTACACATGTAACTACTCTC [XGTACX_site198]	7.06
ATCTCTTACATATTCACACACATATAAATAACTACA [CACACA_site6816]	7.62
ATATGATAGTTTATATGTACATAAATAAATACATAC [XGTACX_site2917]	7.33
AAAGAAAAAAAATAATGTACATATGTATTTGAGAAA [XGTACX_site3571]	7.18
TGTAGAAGAACCCATGCATGCAGTATGAAAAAAAAA [TGCATGCA_site907]	6.9
AAAAAAAGAAAAAAACGTACATGAAAATTTTTTGTT [XGTACX_site5135]	6.77
CTATATAAAAAAATTGCACACATAAATATATACATA [CACACA_site8325]	7.07
ATAAATCCCAAAACCTTGCAAGACAACGTTTGATCA [CACACA_negctrl_site1327]	6.67
GTTCTTTCAAATTATACACACCAAAAAAAAAAAAAA [CACACA_site5660]	7.36
TGATCAAGTAAGAAAAGTACAAAAAAAGTAAAAAAT [XGTACX_site6529]	7.19

Sequence	gcPBM binding intensity (ln)
ATAAGTTTTTATTTTCTGCACTGTCGAATAATAGTT	7.87
GATATGTTTTATTATGTTGATGATAACAGGTAGTTT [CACACA_negctrl_site356]	6.95
ATGGATTATTTTTAAACATGCAGTAGTGATGAAAAA [TGCATGCA_site346]	6.96
AAAAAAAACATACATACACACACATAAATATATATA [CACACA_site8864]	7.42
TATATTATAATATTCACACACTAACGTAAATCATTG [CACACA_site7318]	6.99
AAAAAATATATATATATATATATGTAATATTTTTTT [XGTACX_negctrl_site439]	7.45
TGGCAAAATAGGCACACACACATATACAGATATATT [CACACA_site4727]	7.09
TCAATGAAATTAATATGTACATATTTTTATATAGTA [XGTACX_site7955]	6.98
AAAACTATAAAAATTTTACACACTGTTTTTAAATAA [CACACA_site3667]	6.88
TTTTTTTTTTTTTTTTGTACATATACATATATATAT [XGTACX_site1981]	8.5
AGTAGCAAATATTAAGTGCATATTATATAATGTGTA [GTGCAC_site9546]	8.2
ATAAATATGGCAGTACGTACGTATATTCATATTCAT [XGTACX_site8042]	6.99
ATTAAAAAAAAAAAAAAAAAACAAAAAAAAAAAAAA [CACACA_negctrl_site1187]	6.89
TGTTCAGTATGGCACACACACAACAAAATAAAAAAA [CACACA_site4368]	7.11
GGTTTACCCTATAAATGTACTCATAAATTATATATA [XGTACX_site5771]	6.99
ATACGAAATAGAAACACACATACAATAAATAAATAT [CACACA_site2017]	7
AAAAAAAACAGACACACACACATTCAATATAAAACA [CACACA_site41]	7
ATATCTTATATTATCACACACACACCCACAAAACAG [CACACA_site1464]	8.11
ATGATATGGATAAATACACACAATATAATAATGGGT [CACACA_site4905]	7.04
ATTTTATATATGTGTTGTACGGTGAACATTTTGATA [XGTACX_site6538]	6.95
ATATGTATAAATATAAATATATATATATATATATAT [CACACA_negctrl_site705]	9.63
ACGTTAATATCTACAAGTACCCACATTAACAGGAAA [XGTACX_site2616]	7.33
TATATAAACATCGGTAGTACACACATTCATGTATTT [XGTACX_site6443]	7.14

Sequence	gcPBM binding intensity (ln)
GGATCATTTTTAAAGGAACACACAAAAAAAATTATA [CACACA_site8381]	6.92
TTTTTTTTGAAGAATACATGCATATTTTCTATATTC [TGCATGCA_site43]	6.74
ATATAAAATATGTATGAGGAATAAAATTAAAAAAAA [XGTACX_negctrl_site173]	6.77
ACAATATGCAAAAAGTGTACACATTCATTTATATAA [XGTACX_site1061]	7.54
AATATACAAATAAAGGTGCGAGATATTTTTACTTTT	9.54
ATAAAAAAAGATGAACGTACATATATTTTAAAAATC [XGTACX_site5950]	7.11
TATTAAATATATATTACATGCAAAAAAAAAAAACAA [TGCATGCA_site705]	7.13
GTAAATATTTGTTGGGTGCTATCAATTATTTCAAAG	8.04
TGCGGAAATAAGTGCACACATAGATATATGTATTTT [CACACA_site3689]	10.8
ATATTATATATGTATAGTACATATTATAAGAAAAAT [XGTACX_site3457]	7
ATCTATATCTATAATACACACATCATAAAATATGTA [CACACA_site7230]	7.19
ATATATATTAATAATGCATGTGATATAAATTAATAT [TGCATGCA_site930]	7.26
CGGCACATTCTATATACACACATATAAATATATACA [CACACA_site566]	7.16
TACAATTCGTAATACACACACATATAAATAAATATT [CACACA_site7720]	7.28
TATTGTTATTAAAAATGTACATATAAATTTCTTATT [XGTACX_site1409]	7.02
AAAAATAAAAGGTGTGCACACAAAAATATATATATA [CACACA_site8507]	8.89
AATTTAAAAAATAACAGTACATAAAATATATACATA [XGTACX_site7917]	6.78
TGTGTATATTATATGTGTACATATCAATGTTTATAT [XGTACX_site1885]	7.26
TAATATTAAATAAATAAAATATATAATATATATATA [XGTACX_negctrl_site49]	8.33
TAATATATAACGTGCACACACACATCTACGTATGAA [CACACA_site5080]	10.2
TGGCATTAAAATTTAGTGCATATATCTTAGCATGGG	8.39
